In all, about 130,000 compounds went through this assay and about 1,200 (0.92%) were called active. This list was built around the results that the source calls inconclusive (neither active nor inactive); the mix of calls is not that of the screen. The call rests on the fitted dose curve; in most records, active means well fitted cell-killing curve with a large enough effect; inconclusive means small, poorly fitted or top-dose-only effect; inactive means no such curve, though single readings can be large or run the other way. Potencies beside an inconclusive call are fits to weak or partial responses and may not hold up.
Test: qHTS Screen for Compounds that Selectively Target Cancer Cells with p53 Mutations: Cytotoxicity of p53ts Cells at the Permissive Temperature; further: nearly all actives have a fitted effect of over 55% in size;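 on activity change, negative = cytotoxicity: 0% = DMSO and -100% = full killing by reference compound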
Conditions: H1299-p53A138V at 32C, ATP luminescence viability, 24 h; activity change, negative = cytotoxicity: at 46.1 µM (top of the series)
How it was run: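 ATP-content luminescence (ATPlite) read-out after 24 h compound exposure at 32C in H1299-p53A138V cells (600/well). Tested up to 46 uM. Normalized to DMSO (0%) and 100 uM tamoxifen (100% killing); Hill-fit AC50.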
Potency means the concentration at half of the fitted maximal effect; tags describe the fitted curve by direction and shape.

| SMILES | Potency | activity change, negative = cytotoxicity |
| --- | --- | --- |
| OC1c2ccccc2-c2nc3ccccc3cc21 (stereo unspecified) | inconclusive: 5.01 µM [cytotoxic, partial curve] |  |
| CS(=O)(=O)Nc1cccc(-c2nc(Nc3ccccc3)c3ccccc3n2)c1 | inconclusive: 31.6 µM [cytotoxic, single point] |  |
| COc1ccc(C2C(=O)c3ccccc3C2=O)cc1 | active: 10 µM |  |
| CN(C)c1ccc2nc3ccc(=[N+](C)C)cc-3sc2c1 |  | inactive: -4.75% [at 1.84 µM] |
| COc1cc(/C=C/C(=O)N2CCC=CC2=O)cc(OC)c1OC | active: 3.16 µM |  |
| COc1ccc(-c2cc(=O)n(-c3nc4ccccc4[nH]3)[nH]2)cc1 | inconclusive: 25.1 µM [cytotoxic, single point] |  |
| COc1cccc2[nH]c3c(N4CCCCC4)ncnc3c12 | inconclusive: 25.1 µM [cytotoxic, single point] |  |
| COc1ccc(CNC(=O)C(c2ccco2)N(Cc2cccs2)C(=O)Cc2cccs2)cc1 (stereo unspecified) | inactive |  |
| Cc1ccc2oc(=O)c3cnn(CC(=O)N4CCN(c5cc(Cl)ccc5C)CC4)c3c2c1 | inconclusive: 10 µM [cytotoxic, partial curve] |  |
| c1ccc(-c2csc(N3CCCCCC3)n2)cc1 | inconclusive: 0.0251 µM [cytotoxic, full curve, poor fit] |  |
| C=C(C)Cn1c(SCC#N)nc2ccccc2c1=O | inactive |  |
| COc1ccc(C(=O)/C=C/Nc2cc(C)on2)cc1 | inconclusive: 20 µM [cytotoxic, single point] |  |
| COc1ccc2[nH]c(=O)c(CN(Cc3nnnn3CCc3ccccc3)CC3CCCO3)cc2c1 (stereo unspecified) | inconclusive: 12.6 µM [cytotoxic, single point] |  |
| O=S(=O)(c1ccccc1)N1CCC[C@@]2(CCN(Cc3ccccc3)C2)C1 | inactive |  |
| COc1ccc(C(=O)NCC2OCCc3ccccc32)c(O)c1 (stereo unspecified) | inconclusive: 12.6 µM [cytotoxic, partial curve] |  |
| O=C(Nc1ccccc1)c1ccccc1O | inconclusive: 12.6 µM [cytotoxic, partial curve] |  |
| CCOc1ccc2nc(N3CCCC(C(=O)NCCCOC)C3)sc2c1 (stereo unspecified) | inconclusive: 15.8 µM [cytotoxic, partial curve] |  |
| CN1CC[C@@]2(CCN3CCc4c(oc5ccccc45)[C@@H]3C2)N(C)C1=O | inactive |  |
| CCC(=O)Nc1nc(-c2ccccc2)ns1 | inactive |  |
| Cc1ccc2c(c1)c(CC(=O)Nc1ccc(C)c(F)c1)c(C(=O)O)n2C | inconclusive: 25.1 µM [cytotoxic, single point] |  |
| CCOC(=O)N1CCN(Cc2nc3cc(NC(=O)C(C)C)ccc3n2C(C)C)CC1 | inactive |  |
